Assay results published in the RNAGym collection of RNA variant scans (doi:10.7554/elife.90254).
Read counts are not given, so values of variants with three or more changes are uncertain.

B1: OR4K15 (parent)
chain: GUUAACGGUCAUAGGCCAUGGAAACUAGGAGCACCAUUUCGCUGCCAGUGAAGAAAUGAACAAAGAAAAUCUGGGCCAGGCAGGCAUCAAAAGAAAUAGUCUUGCGCUCAACCAGAAAGUCUGUAAUCAUUUUAAGGGUA

Variants of: B1
Assay: self-cleavage, relative activity (ratio to wild type); higher = more cleavage; in vitro, sequencing; the parent is a self-cleaving ribozyme

| Variant | self-cleavage |
| --- | --- |
| A64G A114U A118G | 0 |
| U37C U43C A56C A114U | 0.03 |
| A18U C32U U43G A89G | 2.95 |
| A23G U38C U49C A94G U120C U133C | 0.74 |
| U19G A55G A62G U127C | 0.75 |
| A30G A54G A66G | 1.27 |
| A52G A55G U57C A59G U120C U122C | 0.97 |
| A51U C76U A92U U120C | 0.1 |
| U38C A51G A64G | 1.49 |
| U72A A96G A111U A116G U132C | 0.01 |
| U49A A59U U87C A116U U131C | 0.24 |
| A23G A82G A135C | 0.13 |
| A27G C34U A54G | 0.58 |
| A23G U57C U108C U120C | 0 |
| U108C U120C C128U | 0.01 |
| U57C A91G U127C | 0.51 |
| U2C G7A U39C | 0.54 |
| G7U A64G A82G | 0.67 |
| A117G A118G A129G | 0.38 |
| A52U A90G A126G U131C | 0.78 |
| A78G A96G U97A | 0.35 |
| A33G U43C U57A A116U | 0.18 |
| U37C A52G A62U A78G A135U | 0.12 |
| U9C U70C A90G U102C | 1.41 |

| Variant | self-cleavage |
| --- | --- |
| C42U A55G A92G U120C U122C | 0.53 |
| U19G A23G A33G | 0.95 |
| G75C A86U U102C U122C | 0.12 |
| A11G A69G U102C U133C | 1.47 |
| A5G A30G U49C | 1.34 |
| U9C A24G A91U C109U | 0.22 |
| A23U A30U A33G A95G A114C A116G | 0.01 |
| U43A A64G A111U | 0.37 |
| A47G G75A A78G U103C U122A | 0.04 |
| C34G A51U A90U A129G | 1.36 |
| U57C A60G U70G | 0.66 |
| U39C A91G U97C C109U A125U U132C | 0.05 |
| A27G A52C A54U A59U U122C A126G U127C | 0.18 |
| U19G A82G A95G | 0.62 |
| A23G A78U C105A | 0.01 |
| U43A A114G A126C A135G | 0 |
| A24G A91G A110G | 0.15 |
| A60G U102C A114U | 0.06 |
| G41A A56G A78G A91U | 0.3 |
| U37C A114G A125G | 0.13 |
| U19A A22C A89U | 0.85 |
| A5G G50A A54U A126U | 0.71 |
| A54U U100C A116G | 0.81 |
| G14U A68U A118C | 0.32 |

| Variant | self-cleavage |
| --- | --- |
| A30U A68G A78U U127C | 0.19 |
| U2C A60G A68G | 0.87 |
| A51G A68G A78G U127C | 0.02 |
| A24G U132C A134G | 1.51 |
| A94G C113U U122C | 0.03 |
| A66G A92G A96G A116C | 0.09 |
| G21U U26C A125G | 0.6 |
| A18U U19C A23U C113U | 0.06 |
| A54G A126U U130C U131C | 0.81 |
| C109A A126G U133C | 0.13 |
| U49A A68G A118G | 0.88 |
| U2C A33U A89G U102C A111G | 0.04 |
| C35U A51U A117G | 1.18 |
| G1A A51G A56G G79U U132C | 1.01 |
| A51G A66G A116U | 0.16 |
| A63C A91G U131C | 1.52 |
| C25U U38C A52U A117G | 1.83 |
| C25U A51G G115A A118G | 0.04 |
| A33G A56U A89G U120C | 0.13 |
| A24G A51G U97A | 1.73 |
| A55G A67G A94G A117G | 1.18 |
| U39C A78G A82G | 0.37 |
| A24G A56U U57A | 1.2 |
| U2C U72C C85U | 0.23 |

| Variant | self-cleavage |
| --- | --- |
| A63G A89U U127A | 2.58 |
| A54G U108C A118G | 0.02 |
| A5C A22G A66G A69G | 1.56 |
| A86G A110G U120C | 0.09 |
| A22G A66G U97A A111G U120A | 0.04 |
| A56G A66G C88A A118U | 1.34 |
| U9C A11G U72A | 0.74 |
| U3A U72C A117G A118G | 0.17 |
| A110G A117G U122A | 0.31 |
| A55G A89G U102C U122C | 2.15 |
| U2C A11U A86C U97C A118G | 0.09 |
| A63G A82U A98U U100C A118G | 0.73 |
| U2C A59G A68G A114G U122C A125G | 0.05 |
| A5G A30U C121U | 1 |
| A18G A92G G93A | 0.91 |
| U49C A51G U57C U122A | 0.63 |
| C32U A33U U120C | 1.24 |
| A18G A54G A111G A114U | 0.02 |
| A36G A68G A69G A78G C109U | 0.12 |
| A52G A91U A118G | 2.13 |
| A55G A66G U127C | 0.31 |
| A47G A67G U132A | 1.19 |
| A27G A52G A69G A98G A110G | 0.06 |
| A67G A78U A117C U139C | 0.15 |

| Variant | self-cleavage |
| --- | --- |
| A55G C88U A126G | 1.29 |
| A69G A117G A135U U139C | 0.55 |
| U2C U9C A92U A129G | 0.78 |
| U43C U70A A118G | 0.29 |
| U12C A110G U132C | 0.23 |
| A24C A68G A98G U102C U133A | 2.01 |
| A47U U49C A55U | 0.21 |
| U57C A63U A69U U131C U132C | 2.17 |
| U43C A67G A118G U132C | 0.44 |
| U38C A55G G58U A134G | 1.47 |
| U49C U87A U102C | 1.09 |
| U19C A55G A62G U102C | 2.05 |
| A94U A95G A135G | 1.26 |
| A66G A98U A135G | 0.41 |
| U38C A54G A59G G75A | 0.31 |
| A47G A68G G83A | 1.17 |
| A24G A36U A68G U87C | 1.17 |
| U57C A63U A67G A78U U130C | 0.23 |
| A51G A66G A91G | 0.79 |
| A55G U100C U102C A140G | 1.98 |
| U37C A64U A67G G75A A111G | 0.02 |
| U87C A89G A96G | 1.32 |
| A22G U39C A62C A117G | 1.57 |
| U2C U39C U57C C85U A118G | 0.6 |

| Variant | self-cleavage |
| --- | --- |
| C6U A135G A140G | 1.77 |
| A11U A117G U131C | 1.65 |
| A52G U103C A111G | 0 |
| U12A U49A A59U G74A U100C | 0.44 |
| A5G U9C U38A A52U C71A | 1.17 |
| A23G U49C U102A U132A | 0.72 |
| A52G A62U A91U A92G | 1.99 |
| U19G A23G U38C A56G | 1.27 |
| U3C U49C A51G A78U U87A | 0.34 |
| A22U U37C A68G U97A | 1.78 |
| G75A A91G A111G A117G A118G | 0.01 |
| U57G U87C U131C | 1.8 |
| A22G A98U U132C | 1.1 |
| A82G A86U A91G | 0.43 |
| U2C U57C U72C | 0.22 |
| U43C A51G A69G A86U U102A A111G | 0.02 |
| A5G C32U U102C | 0.82 |
| U9C U39C A56G C105U A110G | 0.08 |
| A22U A24G U38A A117U | 1.05 |
| U49A A62G A110G U132C U133C | 0.07 |
| A11G U43C A66G A68G | 0.9 |
| A47U A56G G106A A110U | 0.01 |
| A52G A59G U72C A86G | 0.23 |
| A30G A51G U100A | 0.23 |

| Variant | self-cleavage |
| --- | --- |
| A30G G41A U43C | 1.23 |
| A30G U39C A63G G75U U127C | 0.06 |
| A78U A91G A110G | 0.02 |
| A30G A96G U127C | 1.09 |
| A33G A36G U43A A78U | 0.29 |
| A22U U26A A33U | 1.23 |
| A23G C46U A51U A55G U100A | 0.61 |
| G41A A95G U102C | 1.96 |
| U57C A62G A69G U87C A96C | 1.05 |
| G14A A89G A96G G137A | 0.5 |
| U2C A33G A126G U131A U132C | 0.89 |
| C35U U87C A91G A98G A114G | 0.36 |
| U39C A91G U102C U124A | 1.21 |
| U72C A95G U97C C107G A111C A114G | 0.01 |
| U49C A56G A94G A95G U97C | 0.82 |
| A62U A64G A69U U87C U102C | 2.61 |
| U19C A96G U130C | 1.52 |
| A24G U108C A111G | 0.02 |
| U37C A60U U103C U120C | 0.43 |
| A24C U70G A117G | 1.62 |
| A18C A52G A55G A67G A129C U139C | 0.45 |
| A22G A78U A114G | 0.15 |
| U37G A60G A67U A69G A94G A114U | 0.02 |
